Experimental data as given in the supplement of paper PMC4967469.

Columns and labels:
Assay in all cases: Viability of human cancer cell lines after 72 h of drug (GDSC screen)
[1] = compound: C/C(O)=C(\C#N)C(=O)Nc1cc(Br)ccc1Br [LFM-A13]; settings: top dose 16 µM; top dose inferred
Protocol: (§1)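 Human cancer cell lines in 384-well plates, medium with 10% serum, drug for 72 h over a 256-fold dose range (nine 2-fold or five 4-fold steps up to the top dose). Adherent lines were fixed and stained with the nucleic acid dye Syto60, suspension lines read with resazurin; signal relative to control wells, capped at 0 and 100%. One two-parameter sigmoid per drug and line, fitted in a mixed model over all curves with the slope shared within a line.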

[2] = compound: CC(C)c1ccccc1Cc1cc(C(=O)Nc2ccc(S(=O)(=O)c3ccccc3C(C)(C)C)cc2)c(O)c(O)c1O [TW-37]; settings: top dose 5 µM
Protocol: as §1

[3] = compound: CC(O)(CS(=O)(=O)c1ccc(F)cc1)C(=O)Nc1ccc(C#N)c(C(F)(F)F)c1 [Bicalutamide]; settings: top dose inferred
Protocol: as §1

[4] = compound: CCNC(=O)c1noc(-c2cc(C(C)C)c(O)cc2O)c1-c1ccc(CN2CCOCC2)cc1 [AUY922]; settings: top dose 0.256 µM; top dose inferred
Protocol: as §1

[5] = compound: Cc1ccc(Nc2cc(-c3cccc(N4C(=O)c5ccccc5C4=O)c3)ncn2)cc1NS(C)(=O)=O [KIN001-270]; settings: top dose 20 µM; top dose inferred
Protocol: as §1

[6] = compound: Cc1cn(-c2cc(NC(=O)c3ccc(C)c(Nc4nccc(-c5cccnc5)n4)c3)cc(C(F)(F)F)c2)cn1 [Nilotinib]; settings: top dose 2 µM
Protocol: as §1

[7] = compound: NC(=O)c1cccc(-c2cc(Nc3ccc(OC(F)(F)F)cc3)ncn2)c1 [GNF-2]; settings: top dose 1.28 µM; top dose inferred
Protocol: as §1

[8] = compound: Nc1ccn([C@@H]2O[C@H](CO)[C@@H](O)C2(F)F)c(=O)n1 [Gemcitabine]; settings: top dose 1.024 µM
Protocol: as §1

[9] = compound: O=S(=O)(c1ccccc1)N(CC(F)(F)F)c1ccc(C(O)(C(F)(F)F)C(F)(F)F)cc1 [T0901317]; settings: top dose 10.24 µM; top dose inferred
Protocol: as §1

[10] = compound: S=C(NCc1ccc2c(c1)OCO2)N1CCN(c2ncnc3c2oc2ccccc23)CC1 [MP470]; settings: top dose 20 µM; top dose inferred
Protocol: as §1

[11] = top dose 1.024 µM, screen: GDSC drug entry 150
[12] = top dose 10 µM, screen: GDSC drug entry 1502

TE-1 (oesophagus, adherent)
AUC [1]: 0.95 | IC50 [1]: > 16 µM | AUC [2]: 0.644 | IC50 [2]: 0.871 µM | AUC [3, 11]: 0.981 | IC50 [3, 11]: > 1.02 µM | AUC [3, 12]: 0.962 | IC50 [3, 12]: > 10 µM | AUC [4]: 0.458 | IC50 [4]: 0.0119 µM | AUC [5]: 0.977 | IC50 [5]: > 20 µM | AUC [6]: 0.964 | IC50 [6]: > 2 µM | AUC [7]: 0.94 | IC50 [7]: > 1.28 µM | AUC [8]: 0.927 | IC50 [8]: > 1.02 µM | AUC [9]: 0.97 | IC50 [9]: > 10.2 µM | AUC [10]: 0.863 | IC50 [10]: > 20 µM

TE-5 (oesophagus, adherent)
AUC [1]: 0.961 | IC50 [1]: > 16 µM | AUC [2]: 0.68 | IC50 [2]: 1.08 µM | AUC [3, 11]: 0.982 | IC50 [3, 11]: > 1.02 µM | AUC [3, 12]: 0.965 | IC50 [3, 12]: > 10 µM | AUC [4]: 0.957 | IC50 [4]: > 0.256 µM | AUC [5]: 0.984 | IC50 [5]: > 20 µM | AUC [6]: 0.956 | IC50 [6]: > 2 µM | AUC [7]: 0.984 | IC50 [7]: > 1.28 µM | AUC [8]: 0.117 | IC50 [8]: < 0.004 µM | AUC [9]: 0.981 | IC50 [9]: > 10.2 µM | AUC [10]: 0.944 | IC50 [10]: > 20 µM

TE-6 (oesophagus, adherent)
AUC [1]: 0.983 | IC50 [1]: > 16 µM | AUC [2]: 0.904 | IC50 [2]: > 5 µM | AUC [3, 11]: 0.986 | IC50 [3, 11]: > 1.02 µM | AUC [3, 12]: 0.983 | IC50 [3, 12]: > 10 µM | AUC [4]: 0.825 | IC50 [4]: 0.189 µM | AUC [5]: 0.968 | IC50 [5]: > 20 µM | AUC [6]: 0.986 | IC50 [6]: > 2 µM | AUC [7]: 0.945 | IC50 [7]: > 1.28 µM | AUC [8]: 0.748 | IC50 [8]: 0.38 µM | AUC [9]: 0.981 | IC50 [9]: > 10.2 µM | AUC [10]: 0.908 | IC50 [10]: > 20 µM

TE-8 (oesophagus, adherent)
AUC [1]: 0.963 | IC50 [1]: > 16 µM | AUC [2]: 0.417 | IC50 [2]: 0.182 µM | AUC [3, 11]: 0.983 | IC50 [3, 11]: > 1.02 µM | AUC [3, 12]: 0.98 | IC50 [3, 12]: > 10 µM | AUC [4]: 0.321 | IC50 [4]: 0.00486 µM | AUC [5]: 0.966 | IC50 [5]: > 20 µM | AUC [6]: 0.973 | IC50 [6]: > 2 µM | AUC [7]: 0.985 | IC50 [7]: > 1.28 µM | AUC [8]: 0.192 | IC50 [8]: 0.00709 µM | AUC [9]: 0.976 | IC50 [9]: > 10.2 µM | AUC [10]: 0.966 | IC50 [10]: > 20 µM

TE-9 (oesophagus, adherent)
AUC [1]: 0.98 | IC50 [1]: > 16 µM | AUC [2]: 0.473 | IC50 [2]: 0.263 µM | AUC [3, 11]: 0.987 | IC50 [3, 11]: > 1.02 µM | AUC [3, 12]: 0.974 | IC50 [3, 12]: > 10 µM | AUC [4]: 0.63 | IC50 [4]: 0.0371 µM | AUC [5]: 0.977 | IC50 [5]: > 20 µM | AUC [6]: 0.987 | IC50 [6]: > 2 µM | AUC [7]: 0.982 | IC50 [7]: > 1.28 µM | AUC [8]: 0.569 | IC50 [8]: 0.0994 µM | AUC [9]: 0.962 | IC50 [9]: > 10.2 µM | AUC [10]: 0.959 | IC50 [10]: > 20 µM

TE-11 (oesophagus, adherent)
AUC [1]: 0.978 | IC50 [1]: > 16 µM | AUC [2]: 0.523 | IC50 [2]: 0.36 µM | AUC [3, 11]: 0.985 | IC50 [3, 11]: > 1.02 µM | AUC [3, 12]: 0.987 | IC50 [3, 12]: > 10 µM | AUC [4]: 0.862 | IC50 [4]: 0.189 µM | AUC [5]: 0.988 | IC50 [5]: > 20 µM | AUC [6]: 0.978 | IC50 [6]: > 2 µM | AUC [7]: 0.985 | IC50 [7]: > 1.28 µM | AUC [8]: 0.941 | IC50 [8]: > 1.02 µM | AUC [9]: 0.981 | IC50 [9]: > 10.2 µM | AUC [10]: 0.964 | IC50 [10]: > 20 µM

IC50 is the fitted dose that halves viability relative to control wells, and lower means more sensitive; where the fit passes the top or lowest dose, that dose stands as a limit. The AUC spans the tested range (256-fold, ending at the top dose) of the same fit: 1 means no effect, lower means more sensitive. For part of these data: A top dose marked as inferred was derived from the fitted curves, not read from the paper. For part of these data: Drugs with an entry number were screened twice under separate entries, and the two screens often disagree.
